Reference: the supplement of paper PMC10037445
The full ranking holds about 2,900 compounds; the median of “NF-kB SEAP reporter activity, fold change vs agonist alone” is about 0.99, and the highest 2% start at about 2.6. The list shows a part of the results.

Key:
RAW-Dual [1] = experiment: NF-kB SEAP reporter activity, fold change vs agonist alone; higher = enhanced NF-kB activity
Outline: (§1)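 Reporter activity is given as fold change relative to agonist-alone wells. To measure it, 50 nL of library stock was pin-tooled onto RAW-Dual macrophages (50,000 cells/well, DMEM, 384-well plates), a PRR agonist followed 1 h later, and cells stayed at 37 °C, 5% CO2. Twenty hours on, supernatant was assayed for IRF (QuantiLuc luminescence) and NF-κB (QuantiBlue, 620 nm absorbance), and wells under 70% of agonist-control IncuCyte confluency in both mask sets were marked cytotoxic.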

RAW-Dual [2] = experiment: NF-kB SEAP reporter activity, fold change vs agonist alone; cytotoxicity flag (confluency mask): cytotoxic (confluency <70% of control); higher = enhanced NF-kB activity
Outline: as §1

RAW-Dual [3] = experiment: NF-kB SEAP reporter activity, fold change vs agonist alone; cytotoxicity flag (confluency mask): not cytotoxic; higher = enhanced NF-kB activity
Outline: as §1

[4] = library stock concentration (final ~1000-fold dilution): 10 mM, cytotoxicity flag (confluency mask): not cytotoxic, agonist: Imiquimod (TLR7) […]
[5] = library stock concentration (final ~1000-fold dilution): 10 mM, cytotoxicity flag (confluency mask): not cytotoxic, agonist: MPLA (TLR4) […]
[6] = agonist: ODN 1826 (TLR9) 0.5 ug/mL
[7] = agonist: Pam2CSK4 (TLR2/6) 0.1 ug/mL
[8] = agonist: Pam3CSK4 (TLR2/1) 0.1 ug/mL

CS(=O)(=O)c1cccc(CNc2nc(Nc3ccc4c(c3)CCC(=O)N4)ncc2C(F)(F)F)c1
NF-kB SEAP reporter activity (RAW-Dual [1]; [4]): 1.72 | NF-kB SEAP reporter activity (RAW-Dual [1]; [5]): 1.35

CC(C)(C)n1nc(-c2ccc(Cl)cc2)c2c(N)ncnc21
NF-kB SEAP reporter activity (RAW-Dual [1]; library stock concentration (final ~1000-fold dilution): 10 mM, cytotoxicity flag (confluency mask): cytotoxic (confluency <70% of control), agonist: Imiquimod (TLR7) […]): 1.1 | NF-kB SEAP reporter activity (RAW-Dual [1]; library stock concentration (final ~1000-fold dilution): 10 mM, cytotoxicity flag (confluency mask): cytotoxic (confluency <70% of control), agonist: MPLA (TLR4) […]): 0.972

CC(C)(C)n1nc(-c2ccc(Cl)cc2)c2c(N)ncnc21 (library stock concentration (final ~1000-fold dilution): 10 mM)
NF-kB SEAP reporter activity (RAW-Dual [2]; agonist: LPS (TLR4) 0.1 ug/mL): 0.837 | NF-kB SEAP reporter activity (RAW-Dual [2]; [6]): 1.26 | NF-kB SEAP reporter activity (RAW-Dual [2]; [7]): 0.621 | NF-kB SEAP reporter activity (RAW-Dual [2]; [8]): 0.59

CC1(C)CCC(CN2CCN(c3ccc(C(=O)NS(=O)(=O)c4ccc(NCC5CCOCC5)c([N+](=O)[O-])c4)c(Oc4cnc5[nH]ccc5c4)c3)CC2)=C(c2ccc(Cl)cc2)C1 (library stock concentration (final ~1000-fold dilution): 10 mM)
NF-kB SEAP reporter activity (RAW-Dual [3]; agonist: LPS (TLR4) 0.1 ug/mL): 1.64 | NF-kB SEAP reporter activity (RAW-Dual [3]; [6]): 0.581 | NF-kB SEAP reporter activity (RAW-Dual [3]; [7]): 0.562 | NF-kB SEAP reporter activity (RAW-Dual [3]; [8]): 0.523

CC1(C)CCC(CN2CCN(c3ccc(C(=O)NS(=O)(=O)c4ccc(NCC5CCOCC5)c([N+](=O)[O-])c4)c(Oc4cnc5[nH]ccc5c4)c3)CC2)=C(c2ccc(Cl)cc2)C1
NF-kB SEAP reporter activity (RAW-Dual [1]; [4]): 0.863 | NF-kB SEAP reporter activity (RAW-Dual [1]; [5]): 2.12

Nc1nc(N)c2nc(-c3cccc(O)c3)cnc2n1
NF-kB SEAP reporter activity (RAW-Dual [1]; library stock concentration (final ~1000-fold dilution): 2 mM, cytotoxicity flag (confluency mask): not cytotoxic, agonist: Imiquimod (TLR7) […]): 0.878 | NF-kB SEAP reporter activity (RAW-Dual [1]; library stock concentration (final ~1000-fold dilution): 2 mM, cytotoxicity flag (confluency mask): not cytotoxic, agonist: MPLA (TLR4) […]): 1.11

Nc1nc(N)c2nc(-c3cccc(O)c3)cnc2n1 (library stock concentration (final ~1000-fold dilution): 2 mM)
NF-kB SEAP reporter activity (RAW-Dual [3]; agonist: LPS (TLR4) 0.1 ug/mL): 1.19 | NF-kB SEAP reporter activity (RAW-Dual [3]; [6]): 0.976 | NF-kB SEAP reporter activity (RAW-Dual [3]; [7]): 0.932 | NF-kB SEAP reporter activity (RAW-Dual [3]; [8]): 0.954

COc1ccccc1N1CCN(CC(O)COc2cccc3ccccc23)CC1 (stereo not given)
NF-kB SEAP reporter activity (RAW-Dual [1]; [4]): 0.988 | NF-kB SEAP reporter activity (RAW-Dual [1]; [5]): 0.772

COc1ccccc1N1CCN(CC(O)COc2cccc3ccccc23)CC1 (stereo not given) (library stock concentration (final ~1000-fold dilution): 10 mM)
NF-kB SEAP reporter activity (RAW-Dual [3]; agonist: LPS (TLR4) 0.1 ug/mL): 0.954 | NF-kB SEAP reporter activity (RAW-Dual [3]; [6]): 0.897 | NF-kB SEAP reporter activity (RAW-Dual [3]; [7]): 0.731 | NF-kB SEAP reporter activity (RAW-Dual [3]; [8]): 0.867

Cc1ncc(Cl)cc1NCc1ccc(C(=O)NC(CC2CCCC2)C(=O)NC2CC2)s1 (stereo not given) (library stock concentration (final ~1000-fold dilution): 10 mM)
NF-kB SEAP reporter activity (RAW-Dual [3]; agonist: LPS (TLR4) 0.1 ug/mL): 0.894 | NF-kB SEAP reporter activity (RAW-Dual [3]; [6]): 0.742 | NF-kB SEAP reporter activity (RAW-Dual [3]; [7]): 0.85 | NF-kB SEAP reporter activity (RAW-Dual [3]; [8]): 0.698

Cc1ncc(Cl)cc1NCc1ccc(C(=O)NC(CC2CCCC2)C(=O)NC2CC2)s1 (stereo not given)
NF-kB SEAP reporter activity (RAW-Dual [1]; [4]): 0.865 | NF-kB SEAP reporter activity (RAW-Dual [1]; [5]): 0.987

CC(C)(C)C(=O)OCOP(=O)(COCCn1cnc2c(N)ncnc21)OCOC(=O)C(C)(C)C
NF-kB SEAP reporter activity (RAW-Dual [1]; [4]): 1.81 | NF-kB SEAP reporter activity (RAW-Dual [1]; [5]): 1.56

CC(C)(C)C(=O)OCOP(=O)(COCCn1cnc2c(N)ncnc21)OCOC(=O)C(C)(C)C (library stock concentration (final ~1000-fold dilution): 10 mM)
NF-kB SEAP reporter activity (RAW-Dual [3]; agonist: LPS (TLR4) 0.1 ug/mL): 1.63 | NF-kB SEAP reporter activity (RAW-Dual [3]; [6]): 1.69 | NF-kB SEAP reporter activity (RAW-Dual [3]; [7]): 0.825 | NF-kB SEAP reporter activity (RAW-Dual [3]; [8]): 1.35

Cl.O=C1NCC2(CCN(CCc3ccccc3)CC2)O1 (library stock concentration (final ~1000-fold dilution): 10 mM)
NF-kB SEAP reporter activity (RAW-Dual [3]; agonist: LPS (TLR4) 0.1 ug/mL): 2.09 | NF-kB SEAP reporter activity (RAW-Dual [3]; [6]): 1.35 | NF-kB SEAP reporter activity (RAW-Dual [3]; [7]): 1.6 | NF-kB SEAP reporter activity (RAW-Dual [3]; [8]): 1.69

Cl.O=C1NCC2(CCN(CCc3ccccc3)CC2)O1
NF-kB SEAP reporter activity (RAW-Dual [1]; [4]): 1.22 | NF-kB SEAP reporter activity (RAW-Dual [1]; [5]): 1.15

COc1cc(-c2cc(-c3ccc(Cl)cc3)nc(=O)[nH]2)ccc1O (library stock concentration (final ~1000-fold dilution): 10 mM)
NF-kB SEAP reporter activity (RAW-Dual [3]; agonist: LPS (TLR4) 0.1 ug/mL): 1.6 | NF-kB SEAP reporter activity (RAW-Dual [3]; [6]): 0.991 | NF-kB SEAP reporter activity (RAW-Dual [3]; [7]): 1.22 | NF-kB SEAP reporter activity (RAW-Dual [3]; [8]): 1.39

COc1cc(-c2cc(-c3ccc(Cl)cc3)nc(=O)[nH]2)ccc1O
NF-kB SEAP reporter activity (RAW-Dual [1]; [4]): 1.09 | NF-kB SEAP reporter activity (RAW-Dual [1]; [5]): 1.15

COc1ccc2[nH]c(S(=O)Cc3ncc(C)c(OC)c3C)nc2c1 (stereo not given) (library stock concentration (final ~1000-fold dilution): 10 mM)
NF-kB SEAP reporter activity (RAW-Dual [3]; agonist: LPS (TLR4) 0.1 ug/mL): 1.29 | NF-kB SEAP reporter activity (RAW-Dual [3]; [6]): 0.88 | NF-kB SEAP reporter activity (RAW-Dual [3]; [7]): 0.95 | NF-kB SEAP reporter activity (RAW-Dual [3]; [8]): 0.971

COc1ccc2[nH]c(S(=O)Cc3ncc(C)c(OC)c3C)nc2c1 (stereo not given)
NF-kB SEAP reporter activity (RAW-Dual [1]; [4]): 0.984 | NF-kB SEAP reporter activity (RAW-Dual [1]; [5]): 0.95

O=c1ccc2ccc(O)c(O)c2o1
NF-kB SEAP reporter activity (RAW-Dual [1]; [4]): 0.848 | NF-kB SEAP reporter activity (RAW-Dual [1]; [5]): 0.866

O=c1ccc2ccc(O)c(O)c2o1 (library stock concentration (final ~1000-fold dilution): 10 mM)
NF-kB SEAP reporter activity (RAW-Dual [3]; agonist: LPS (TLR4) 0.1 ug/mL): 0.857 | NF-kB SEAP reporter activity (RAW-Dual [3]; [6]): 0.815 | NF-kB SEAP reporter activity (RAW-Dual [3]; [7]): 0.815 | NF-kB SEAP reporter activity (RAW-Dual [3]; [8]): 0.865

NC1=NC2(c3cc(NC(=O)c4ccc(F)cn4)ccc3F)COCC2CS1 (stereo not given) (library stock concentration (final ~1000-fold dilution): 10 mM)
NF-kB SEAP reporter activity (RAW-Dual [3]; agonist: LPS (TLR4) 0.1 ug/mL): 1.41 | NF-kB SEAP reporter activity (RAW-Dual [3]; [6]): 0.875 | NF-kB SEAP reporter activity (RAW-Dual [3]; [7]): 0.904 | NF-kB SEAP reporter activity (RAW-Dual [3]; [8]): 1.26

NC1=NC2(c3cc(NC(=O)c4ccc(F)cn4)ccc3F)COCC2CS1 (stereo not given)
NF-kB SEAP reporter activity (RAW-Dual [1]; [4]): 0.813 | NF-kB SEAP reporter activity (RAW-Dual [1]; [5]): 1

C=CC(=O)Nc1cccc(Nc2nc(Nc3ccc(N4CCN(C(C)=O)CC4)cc3OC)ncc2C(F)(F)F)c1
NF-kB SEAP reporter activity (RAW-Dual [1]; [4]): 1.15 | NF-kB SEAP reporter activity (RAW-Dual [1]; [5]): 1.55

C=CC(=O)Nc1cccc(Nc2nc(Nc3ccc(N4CCN(C(C)=O)CC4)cc3OC)ncc2C(F)(F)F)c1 (library stock concentration (final ~1000-fold dilution): 10 mM)
NF-kB SEAP reporter activity (RAW-Dual [3]; agonist: LPS (TLR4) 0.1 ug/mL): 1.26 | NF-kB SEAP reporter activity (RAW-Dual [3]; [6]): 1.14 | NF-kB SEAP reporter activity (RAW-Dual [3]; [7]): 0.476 | NF-kB SEAP reporter activity (RAW-Dual [3]; [8]): 0.491

O=C(Nc1ccc(O)cc1)c1ccccc1O (library stock concentration (final ~1000-fold dilution): 10 mM)
NF-kB SEAP reporter activity (RAW-Dual [3]; agonist: LPS (TLR4) 0.1 ug/mL): 1.17 | NF-kB SEAP reporter activity (RAW-Dual [3]; [6]): 1.93 | NF-kB SEAP reporter activity (RAW-Dual [3]; [7]): 0.921 | NF-kB SEAP reporter activity (RAW-Dual [3]; [8]): 1.04

O=C(Nc1ccc(O)cc1)c1ccccc1O
NF-kB SEAP reporter activity (RAW-Dual [1]; [4]): 1.68 | NF-kB SEAP reporter activity (RAW-Dual [1]; [5]): 1.24
